From article PMC9911399, “Two distinct binding modes provide the RNA-binding protein RbFox with extraordinary sequence specificity”
Substitutions are numbered along the chain they refer to; changes in the protein carry UniProt numbers. The list shows a part of the results.

B1: UUGCUCA (DNA:RNA)
RNA: GGGAGACCGGAAUUCAGAUUGUCCUUGCUCAUUAAAUCCCGUCGUAGCCACCA
DNA 1: CAATCTGAATTCCGGTCTCCC
DNA 2: TGGTGGCTACGACGGGATT
B2: CGUUAUU (DNA:RNA)
RNA: GGGAGACCGGAAUUCAGAUUGUCCCGUUAUUUUAAAUCCCGUCGUAGCCACCA
DNA 1: CAATCTGAATTCCGGTCTCCC
DNA 2: TGGTGGCTACGACGGGATT
B3: AAUAAGA (DNA:RNA)
RNA: B2 RNA with C25A, G26A, U28A, U30G, U31A
DNA 1: CAATCTGAATTCCGGTCTCCC
DNA 2: TGGTGGCTACGACGGGATT
B4: UCCAUUA (DNA:RNA)
RNA: B1 RNA with U26C, G27C, C28A, C30U
DNA 1: CAATCTGAATTCCGGTCTCCC
DNA 2: TGGTGGCTACGACGGGATT
B5: CCGUGAA (DNA:RNA)
RNA: B2 RNA with G26C, U27G, A29G, U30A, U31A
DNA 1: CAATCTGAATTCCGGTCTCCC
DNA 2: TGGTGGCTACGACGGGATT
B6: ACCCUUA (DNA:RNA)
RNA: B1 RNA with U25A, U26C, G27C, C30U
DNA 1: CAATCTGAATTCCGGTCTCCC
DNA 2: TGGTGGCTACGACGGGATT
B7: AGCAGCC (DNA:RNA)
RNA: B2 RNA with C25A, U27C, U28A, A29G, U30C, U31C
DNA 1: CAATCTGAATTCCGGTCTCCC
DNA 2: TGGTGGCTACGACGGGATT
B8: UUAAAAA (DNA:RNA)
RNA: B1 RNA with G27A, C28A, U29A, C30A
DNA 1: CAATCTGAATTCCGGTCTCCC
DNA 2: TGGTGGCTACGACGGGATT
B9: GGUCAUA (DNA:RNA)
RNA: B2 RNA with C25G, U28C, U31A
DNA 1: CAATCTGAATTCCGGTCTCCC
DNA 2: TGGTGGCTACGACGGGATT
B10: CACAUUA (DNA:RNA)
RNA: B2 RNA with G26A, U27C, U28A, A29U, U31A
DNA 1: CAATCTGAATTCCGGTCTCCC
DNA 2: TGGTGGCTACGACGGGATT
B11: CACAAUU (DNA:RNA)
RNA: B2 RNA with G26A, U27C, U28A
DNA 1: CAATCTGAATTCCGGTCTCCC
DNA 2: TGGTGGCTACGACGGGATT
B12: UAUCUUU (DNA:RNA)
RNA: B2 RNA with C25U, G26A, U28C, A29U
DNA 1: CAATCTGAATTCCGGTCTCCC
DNA 2: TGGTGGCTACGACGGGATT
B13: AAAUCGU (DNA:RNA)
RNA: B2 RNA with C25A, G26A, U27A, A29C, U30G
DNA 1: CAATCTGAATTCCGGTCTCCC
DNA 2: TGGTGGCTACGACGGGATT
B14: ACUCUGC (DNA:RNA)
RNA: B1 RNA with U25A, U26C, G27U, C30G, A31C
DNA 1: CAATCTGAATTCCGGTCTCCC
DNA 2: TGGTGGCTACGACGGGATT
B15: AUACCGA (DNA:RNA)
RNA: B1 RNA with U25A, G27A, U29C, C30G
DNA 1: CAATCTGAATTCCGGTCTCCC
DNA 2: TGGTGGCTACGACGGGATT
B16: CGUUGUU (DNA:RNA)
RNA: B2 RNA with A29G
DNA 1: CAATCTGAATTCCGGTCTCCC
DNA 2: TGGTGGCTACGACGGGATT
B17: GUCCAGU (DNA:RNA)
RNA: B2 RNA with C25G, G26U, U27C, U28C, U30G
DNA 1: CAATCTGAATTCCGGTCTCCC
DNA 2: TGGTGGCTACGACGGGATT
B18: UAGGGCG (DNA:RNA)
RNA: B1 RNA with U26A, C28G, U29G, A31G
DNA 1: CAATCTGAATTCCGGTCTCCC
DNA 2: TGGTGGCTACGACGGGATT
B19: ACGCAUU (DNA:RNA)
RNA: B2 RNA with C25A, G26C, U27G, U28C
DNA 1: CAATCTGAATTCCGGTCTCCC
DNA 2: TGGTGGCTACGACGGGATT
B20: GGUAUGC (DNA:RNA)
RNA: B2 RNA with C25G, U28A, A29U, U30G, U31C
DNA 1: CAATCTGAATTCCGGTCTCCC
DNA 2: TGGTGGCTACGACGGGATT

The binders below were run against T1, RBFOX1 RRM RbFoxmut (Fox-RRM*) (Homo sapiens, UniProt Q9NWB1 109-208, R118D;E147R;N151S;E152T) (assay: EMSA; HiTS-Eq, 1 nM pool, 10 min; buffer printed only for the single-RNA assays: 10 mM Tris pH 7.5, 150 mM NaCl, 3.4 mM EDTA, 0.001% NP-40, 30 C). Details: tags: His6 N-terminal (pET28a); label: 5' 32P.
T1 sequence: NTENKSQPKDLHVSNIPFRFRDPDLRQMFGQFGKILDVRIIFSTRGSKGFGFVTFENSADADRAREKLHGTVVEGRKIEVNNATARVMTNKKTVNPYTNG
How it was run: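 These values rest on relative association constants, computed from read-count changes of each RNA species versus the control reaction and normalised to the cognate motif. Reads came from free RNA recovered by 8% native PAGE after purified RbFox RRM (wild type or mutant) at increasing concentrations was equilibrated for 10 min in 50 µL with 1 nM of a 5′-radiolabelled pool with 7 randomized nucleotides and DNA-annealed flanks.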

| Binder | binding signal |
| --- | --- |
| B1 | 0.105 KA relative to UGCAUGU |
| B2 | 0.116 KA relative to UGCAUGU |
| B3 | 0.0558 KA relative to UGCAUGU |
| B4 | 0.0895 KA relative to UGCAUGU |
| B5 | 0.0944 KA relative to UGCAUGU |
| B6 | 0.133 KA relative to UGCAUGU |
| B7 | 0.0801 KA relative to UGCAUGU |
| B8 | 0.0949 KA relative to UGCAUGU |
| B9 | 0.0878 KA relative to UGCAUGU |
| B10 | 0.126 KA relative to UGCAUGU |
| B11 | 0.0674 KA relative to UGCAUGU |
| B12 | 0.0747 KA relative to UGCAUGU |
| B13 | 0.075 KA relative to UGCAUGU |
| B14 | 0.0685 KA relative to UGCAUGU |
| B15 | 0.0962 KA relative to UGCAUGU |
| B16 | 0.121 KA relative to UGCAUGU |
| B17 | 0.117 KA relative to UGCAUGU |
| B18 | 0.0883 KA relative to UGCAUGU |
| B19 | 0.0987 KA relative to UGCAUGU |
| B20 | 0.398 KA relative to UGCAUGU |
